Test results as given in the supplement of paper PMC3334620.
Whole data set: some 33,000 sequences, median “E-score (-0.5 to 0.5)” near -0.013, cut for the highest 2% near 0.3. Some of the results follow.

biological target: T1, Msn1 (UniProt P22148); test: PBM E-score (8-mer binding enrichment) (E-score (-0.5 to 0.5)); higher = stronger / more preferred TF binding; most listed sequences are background and not binding sites; settings: protein concentration: 200 nM; construct: GST-full length
T1 sequence: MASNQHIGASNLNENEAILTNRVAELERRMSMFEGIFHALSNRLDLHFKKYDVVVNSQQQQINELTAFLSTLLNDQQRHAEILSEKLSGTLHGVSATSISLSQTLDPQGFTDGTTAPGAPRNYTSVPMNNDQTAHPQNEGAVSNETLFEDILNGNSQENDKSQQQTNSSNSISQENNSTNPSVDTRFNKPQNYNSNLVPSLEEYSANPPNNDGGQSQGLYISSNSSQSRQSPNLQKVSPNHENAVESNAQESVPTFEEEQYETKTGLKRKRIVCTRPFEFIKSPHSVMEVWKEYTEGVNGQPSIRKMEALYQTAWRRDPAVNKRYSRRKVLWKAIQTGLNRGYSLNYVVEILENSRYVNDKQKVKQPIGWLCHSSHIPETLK
Method in brief: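 Detection of bound protein used fluorescent anti-GST, with scans normalised by masliner. The proteins were GST-tagged yeast transcription factors applied at about 100-200 nM to universal all-10-mer Agilent arrays made double-stranded by primer extension. Each ungapped eight-base word, pooled with its reverse complement, was scored with an E-score from the Universal PBM Analysis Suite.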

| Sequence | PBM E-score |
| --- | --- |
| CGCCCCCG | -0.225 |
| AAGGCCCC | -0.257 |
| GCAGGCGC | -0.112 |
| GCGCACGC | -0.227 |
| ATTCGAAC | 0.143 |
| AGGGAGCC | -0.283 |
| ACAATCAC | 0.131 |
| CAATGGTA | 0.0972 |
| CTGGCTAA | -0.0239 |
| ACTGTGTC | 0.217 |
| ACGAACAA | 0.269 |
| AATTAGGG | -0.126 |
| CGGGGACG | -0.152 |
| AGTGTAAC | -0.108 |
| GCCACACA | -0.0564 |
| CACGCACA | -0.044 |
| GAAGAATA | -0.141 |
| CCGAGGAG | -0.0868 |
| CGGAGTAG | 0.0939 |
| AGATAGCT | -0.113 |
| GACAATTA | 0.426 |
| ACGAGGCG | 0.0795 |
| AAGAATAC | 0.00255 |
| ATACTCGG | 0.179 |

| Sequence | PBM E-score |
| --- | --- |
| TGCTCACA | -0.0848 |
| AGTGTTTC | -0.0607 |
| AGTTGAAC | 0.00997 |
| CGGTCACG | -0.162 |
| GCCGGCTA | -0.0401 |
| ACGGTCCC | -0.269 |
| AGCAAACC | -0.0325 |
| AGAGTCGA | -0.219 |
| CTGACGAA | 0.115 |
| GCACTGCA | -0.163 |
| GACGCTAA | -0.171 |
| ATGGGATC | -0.0823 |
| CCCCACCA | -0.227 |
| ATCTAGTC | 0.00018 |
| CGTCCTCC | -0.0931 |
| AGCTAAAC | -0.113 |
| CGTTATGA | -0.0438 |
| AAAACTGT | 0.126 |
| AAACTTAC | 0.0625 |
| CTCGATCA | -0.0281 |
| ACGCGAAA | 0.0436 |
| AGTCACTC | -0.0221 |
| AGTTGATA | 0.27 |
| GACTCACA | -0.0298 |

| Sequence | PBM E-score |
| --- | --- |
| CTGAACAG | -0.135 |
| GCGCTGCA | -0.0903 |
| GTCCCGCA | 0.151 |
| CTGGAACA | 0.117 |
| CCCGCTGC | -0.0392 |
| CGCGCTGC | -0.172 |
| GGTATTCA | 0.0386 |
| CACCTGTC | 0.0895 |
| AGCACTCC | -0.0857 |
| ACAGGGCA | 0.00913 |
| GTCTTATA | 0.174 |
| CAGATAAG | 0.102 |
| AGGTCAGG | -0.33 |
| ATCTGGAC | 0.215 |
| ATTTTAGC | 0.193 |
| GGATTTCA | 0.0863 |
| CGCGTGTC | 0.344 |
| TATGGGCA | 0.0785 |
| TGTTTAAA | 0.0999 |
| GCGGCCCC | -0.311 |
| ACCTGGTA | -0.0804 |
| ATCATTAG | 0.00045 |
| GAACAAGC | 0.139 |
| GAAAAGCC | -0.132 |

| Sequence | PBM E-score |
| --- | --- |
| ATCATACA | 0.122 |
| ATTAGGTG | 0.0556 |
| ACAGCTAA | -0.043 |
| GCGGAAGA | -0.0143 |
| CGCTCATC | -0.102 |
| CTTGGTCA | 0.0262 |
| GCACGCTA | -0.292 |
| AGGGCTAC | -0.18 |
| AGCAGCTC | -0.131 |
| ATGGGTCC | -0.173 |
| CAGATCGC | -0.112 |
| ATATCCCC | -0.14 |
| GGGTCACC | -0.297 |
| AGCGGGAG | -0.266 |
| CCACATCA | -0.0399 |
| ACTCTGTG | 0.0369 |
| ACCCCTGA | -0.126 |
| ATGGATTC | -0.00162 |
| AACCCCGG | -0.238 |
| AATTGAGT | 0.0818 |
| CGGTGCCC | -0.224 |
| CTGTAACA | -0.0488 |
